{"source": "patent US20240376214A1", "about": "“ANTI-C-MET ANTIBODIES AND ANTIBODY-DRUG CONJUGATES” (BYONDIS B.V., priority 2021, published 2024)", "molecules": {"B1": {"name": "ADC3b: mAb3b site-specifically conjugated (HC 41C) to vc-seco-DUBA, DAR 1.9 (conjugate)", "heavy": "QVQLVQSGAEVKKPGASVKVSCKASGYTFTDYYLNWVRQACGQGLEWMGLIFPGNDKTEYSEKFKGRVTLTTDTSISTAYMELSSLTSDDTALYYCSGGDYGGFVYWGQGTLVTVSS[sequence of human IgG1 constant region not given]", "light": "DIQMTQSPSSLSASVGDRVTISCGASENIYGALNWYQQQPGKAPKVLIFGATNLADGVPSRFSGSGSGTDFTLTISSLQPEDFATYYCQNVLSSPLTFGQGTKLEIKRTVAAPSVFIFPPSDEQLKSGTASVVCLLNNFYPREAKVQWKVDNALQSGNSQESVTEQDSKDSTYSLSSTLTLSKADYEKHKVYACEVTHQGLSSPVTKSFNRGEC"}}, "key": {"[1]": {"biological_target": "T1, human c-Met (Homo sapiens, UniProt P08581)", "T1 construct": "human c-Met-positive tumor cell lines MKN45, NCI-H596 and PC-3; endogenous in cells; host or cells: MKN45; PC-3", "T1 sequence (P08581 25-1390)": "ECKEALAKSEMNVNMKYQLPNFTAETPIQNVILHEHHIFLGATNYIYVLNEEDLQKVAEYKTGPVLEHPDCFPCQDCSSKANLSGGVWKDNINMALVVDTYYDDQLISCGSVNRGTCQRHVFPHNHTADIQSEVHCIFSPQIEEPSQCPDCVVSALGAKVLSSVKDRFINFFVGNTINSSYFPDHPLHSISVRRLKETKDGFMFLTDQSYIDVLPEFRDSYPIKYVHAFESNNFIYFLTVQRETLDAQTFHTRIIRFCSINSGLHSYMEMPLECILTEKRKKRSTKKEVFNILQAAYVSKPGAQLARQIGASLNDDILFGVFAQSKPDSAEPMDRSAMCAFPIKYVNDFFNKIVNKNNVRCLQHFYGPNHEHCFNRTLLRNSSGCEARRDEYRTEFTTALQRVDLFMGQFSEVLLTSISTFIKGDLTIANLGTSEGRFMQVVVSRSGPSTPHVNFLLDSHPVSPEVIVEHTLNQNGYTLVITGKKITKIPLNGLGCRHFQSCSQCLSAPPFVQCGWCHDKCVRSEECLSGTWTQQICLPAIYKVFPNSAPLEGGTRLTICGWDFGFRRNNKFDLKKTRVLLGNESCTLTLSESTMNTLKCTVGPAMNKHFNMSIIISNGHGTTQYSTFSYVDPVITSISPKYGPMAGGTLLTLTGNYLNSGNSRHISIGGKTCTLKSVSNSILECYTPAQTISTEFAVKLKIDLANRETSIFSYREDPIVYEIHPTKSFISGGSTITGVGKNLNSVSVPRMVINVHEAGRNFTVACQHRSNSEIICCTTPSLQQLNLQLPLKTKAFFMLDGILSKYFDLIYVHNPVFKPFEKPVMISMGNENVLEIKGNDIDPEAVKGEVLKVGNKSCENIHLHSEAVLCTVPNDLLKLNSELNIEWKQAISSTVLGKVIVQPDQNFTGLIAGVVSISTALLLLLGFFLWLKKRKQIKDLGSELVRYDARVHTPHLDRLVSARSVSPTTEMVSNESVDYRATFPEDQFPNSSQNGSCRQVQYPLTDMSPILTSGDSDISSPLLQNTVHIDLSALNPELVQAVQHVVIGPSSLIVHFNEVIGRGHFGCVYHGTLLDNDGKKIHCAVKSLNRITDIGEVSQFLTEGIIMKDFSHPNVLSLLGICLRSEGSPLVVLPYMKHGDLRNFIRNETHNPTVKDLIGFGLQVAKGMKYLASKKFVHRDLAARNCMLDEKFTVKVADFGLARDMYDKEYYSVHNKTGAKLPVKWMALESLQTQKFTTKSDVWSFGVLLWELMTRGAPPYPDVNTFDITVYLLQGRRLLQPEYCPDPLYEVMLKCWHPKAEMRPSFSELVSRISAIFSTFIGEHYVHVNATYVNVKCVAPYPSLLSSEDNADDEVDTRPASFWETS", "test": "Cellular binding (flow cytometry), MKN45 cells", "details": "c-Met-expressing MKN45 cells, FIG. 2", "protocol": "Cellular binding of the 14 wild-type chimeric and the 14 HC-41C chimeric anti-c-Met antibodies was studied in human c-Met-positive tumor cell lines MKN45, NCI-H596 and PC-3, rhesus c-Met-positive tumor cell line 4 MBr-5, and human c-Met-negative tumor cell line MDA-MB-175-VII. Cells were used around 90% of confluence at the time of an assay, detached with Trypsin-Versene (EDTA) (Lonza) for 5-10 minutes, washed and adjusted to a concentration of 1×10^6 cells/mL in ice-cold FACS buffer (PBS 1×, 0.1% v/w BSA, 0.02% v/v sodium azide (NaN3)). Staining was performed in 96-well round-bottomed microtiter plates using ice-cold reagents/solutions at 4° C. to prevent the modulation and internalization of surface antigens. 100,000 cells/well were added to 96-well plates (100 μL/well) and centrifuged at 300×g for 3 minutes. […] For analysis of the data, the Median Fluorescence Intensity (MFI) values were obtained.\nCellular binding of the in total 75 humanized anti-c-Met antibodies (originating from the three selected chimeric antibodies) was studied in human c-Met-positive tumor cell lines MKN45, NCI-H596 and PC-3, rhesus c-Met-positive tumor cell line 4 MBr-5, and human c-Met-negative tumor cell line MDA-MB-175-VII. […] For analysis of the data, the Median Fluorescence Intensity (MFI) values were obtained."}, "[2]": {"test": "Pharmacokinetics in lung LXFL1176 tumor bearing Ces1c KO mice", "assay_type": "in vivo", "protocol": "Pharmacokinetic/pharmacodynamic studies were performed with anti-c-Met ADC ADC3b in tumor-bearing CES1c KO SCID mice. These mice lack exon 5 of the Ces1c gene leading to the abolishment of the function of the enzyme. Further pharmacokinetic data were obtained from a toxicology study with ADC3b in cynomolgus monkey.\nMice were dosed with ADC3b (0.3, 1, 3 or 10 mg/kg, intravenous (i.v.) bolus injection) and plasma was collected at 1, 48, 168, 336, 504 hours post dosing. Monkeys were dosed with ADC3b (5, 15 or 25 mg/kg, i.v. infusion) and plasma was collected at 1, 6, 24, 48, 96, 192, 360, 504 hours. An LC-MS/MS based assay was used to quantify total antibody, and ligand binding assays were used to quantify conjugated antibody. The conjugated antibody assay captures ADC species that contain at least one linker drug."}, "[3]": {"tested_on": "human tumor cell lines with high, moderate and low c-Met expression", "test": "In vitro cytotoxicity (PrestoBlue, CyQUANT), tumor cell lines with varying c-Met expression", "assay_type": "cell-based", "details": "6 days, PrestoBlue and CyQUANT read-outs, FIG. 3", "protocol": "In a separate experiment, in vitro cytotoxicity of ADC3b was determined in human tumor cell lines with varying levels of c-Met expression. Cells in complete growth medium were plated in 384-well plates (45 μL/well) and incubated at 37° C., 5% CO2 at the following cell densities: 650 MKN-45, 600 EBC-1, 250 PC-3, 400 KP-4, 2000 NCI-H441, 2500 Hep-G2, 4000 A2780, 1500 HCC-1954 and 600 Jurkat NucLight Red cells per well. After an overnight incubation 5 μL of ADC3b was added. Serial dilutions of the ADC were made in culture medium. Cell viability was assessed after 6 days using the fluorescence-based PrestoBlue® Cell Viability Reagent (Invitrogen, Thermo Fisher scientific, USA) and fluorescence-based CyQUANT® Cell Proliferation Assay (Invitrogen, Thermo Fisher scientific, USA) according to the manufacturer's instructions. Percentage survival was calculated by dividing the measured fluorescence for each ADC concentration with the average mean of untreated cells (only growth medium) multiplied with 100."}, "[4]": {"details": "Conjugated antibody, 0.3 mg/kg i.v."}, "[5]": {"details": "Conjugated antibody, 1 mg/kg i.v."}, "[6]": {"details": "Conjugated antibody, 3 mg/kg i.v."}, "[7]": {"details": "Conjugated antibody, 10 mg/kg i.v."}}, "data": [{"molecule": "B1", "values": [{"measurement": "binding affinity of ADC versus unconjugated antibody", "setting": "[1]", "value": "equal binding affinities"}, {"measurement": "AUClast", "setting": "[2]; [4]", "value": 355, "unit": "µg·h/mL"}, {"measurement": "Cmax", "setting": "[2]; [4]", "value": 4.96, "unit": "µg/mL"}, {"measurement": "AUClast", "setting": "[2]; [5]", "value": 1670, "unit": "µg·h/mL"}, {"measurement": "Approximate t1/2", "setting": "[2]; [5]", "value": 87.5, "unit": "h"}, {"measurement": "Cmax", "setting": "[2]; [5]", "value": 19.0, "unit": "µg/mL"}, {"measurement": "AUClast", "setting": "[2]; [6]", "value": 5920, "unit": "µg·h/mL"}, {"measurement": "Cmax", "setting": "[2]; [6]", "value": 57.4, "unit": "µg/mL"}, {"measurement": "AUClast", "setting": "[2]; [7]", "value": 33900, "unit": "µg·h/mL"}, {"measurement": "Cmax", "setting": "[2]; [7]", "value": 187, "unit": "µg/mL"}, {"measurement": "AUClast", "setting": "[2]; Total antibody, 0.3 mg/kg i.v.", "value": 388, "unit": "µg·h/mL"}, {"measurement": "Cmax", "setting": "[2]; Total antibody, 0.3 mg/kg i.v.", "value": 6.24, "unit": "µg/mL"}, {"measurement": "AUClast", "setting": "[2]; Total antibody, 1 mg/kg i.v.", "value": 1870, "unit": "µg·h/mL"}, {"measurement": "Approximate t1/2", "setting": "[2]; Total antibody, 1 mg/kg i.v.", "value": 95.5, "unit": "h"}, {"measurement": "Cmax", "setting": "[2]; Total antibody, 1 mg/kg i.v.", "value": 22.9, "unit": "µg/mL"}, {"measurement": "AUClast", "setting": "[2]; Total antibody, 3 mg/kg i.v.", "value": 7130, "unit": "µg·h/mL"}, {"measurement": "Approximate t1/2", "setting": "[2]; Total antibody, 3 mg/kg i.v.", "value": 192, "unit": "h"}, {"measurement": "Cmax", "setting": "[2]; Total antibody, 3 mg/kg i.v.", "value": 69.8, "unit": "µg/mL"}, {"measurement": "AUClast", "setting": "[2]; Total antibody, 10 mg/kg i.v.", "value": 38500, "unit": "µg·h/mL"}, {"measurement": "Cmax", "setting": "[2]; Total antibody, 10 mg/kg i.v.", "value": 222, "unit": "µg/mL"}, {"measurement": "cytotoxicity", "setting": "[3]", "value": "induce cytotoxicity"}]}]}
